Assay results: the RNAGym collection of RNA variant scans (doi:10.1093/nar/gkz1192)
The source gives no read counts; variants with many changes may rest on few reads.

B1: CPEB3 Ribozyme (parent)
chain: UAACAGGGGGCCACAGCAGAAGCGUUCACGUCGCAGCCCCUGUCAGAUUCUGGUGAAUCUGCGAAUUCUGCUGUAUAUCUC

Variants of: B1
Assay: self-cleavage, relative activity (ratio to wild type); higher = more cleavage; in vitro, sequencing
Method in brief: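 Relative activity was defined as the cleaved/total read fraction for a variant divided by the same fraction for the unmutated ribozyme. CPEB3 self-cleaving ribozyme libraries were made by rounds of error-prone PCR, barcoded, and transcribed in vitro with T7 RNA polymerase for 5 hours at 37°C, and cleavage ran through transcription plus a 15 min DNase I step before EDTA. Illumina sequencing of template-switched reverse transcripts gave the reads, and DNA sequencing mapped the barcodes. Averages come from three batches, using variants with at least 5 reads.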

| Variant | self-cleavage |
| --- | --- |
| C14G A28U U48C U54A | 0.23 |
| C14G U25C A65U | 0.11 |
| C14G U25C U60C | 0.28 |
| C14U A15G A35G | 1.23 |
| C14U A15G G33U U49A A56G C59G | 0.11 |
| C14U A15G U41A | 0.13 |
| C14U A18C G63C U72C | 0.16 |
| C14U A18G A21G | 0.31 |
| C14U A18G A28G U31A U67C U69C U80C | 0.04 |
| C14U A18G U25C A35G | 0.09 |
| C14U A20G U26C U31C G73U A75G U80C | 0.14 |
| C14U A20G U67C A75C | 1.09 |
| C14U A20G U67C U72C | 1.23 |
| C14U A21G U25A U66C U72A | 0.05 |
| C14U A28G A57G | 0.72 |
| C14U A35G A64U | 1.25 |
| C14U A35G C39A U54C U67C U78C U80C | 0.07 |
| C14U A35G U49C A56G U69C | 1.23 |
| C14U A35G U60C | 1.28 |
| C14U A45G U51A U69G | 0.36 |
| C14U A56G U80C | 1.13 |
| C14U C32G C62U U74C | 0.11 |
| C14U C38G C40A A57G U58C | 0.17 |
| C14U C40U A64U G70A U72G | 0.14 |

| Variant | self-cleavage |
| --- | --- |
| C14U G16U A35G U43C U51A U80C | 0.91 |
| C14U G19C A47G G63U | 0.3 |
| C14U G46A U78C | 0.42 |
| C14U U25C A35U U41A | 0.16 |
| C14U U26C U67C C71A | 0.24 |
| C14U U31A C38A U41C U51G | 0.09 |
| C14U U31C U41A U48C U78A | 0.14 |
| C14U U31G A45C U48C C62A | 0.21 |
| C14U U41A A45U | 0.27 |
| C14U U41A U60C A64U | 0.11 |
| C14U U41C A56G A57G | 0.49 |
| C14U U41G A57G A77G | 0.09 |
| C14U U41G U49C G55C U58C | 0.13 |
| C14U U43C A45U U51C | 0.12 |
| C14U U43C A47U | 0.09 |
| C14U U48C U72C | 0.72 |
| C14U U66C U69C U72G | 0.25 |
| A15C A18C A64G | 0.56 |
| A15C A18G A45G | 0.04 |
| A15C A18G C32A A35U | 0.42 |
| A15C A18G C59U A64U | 0.07 |
| A15C A18U U31C U54A C71A U74A A75U | 0.09 |
| A15C A20G U26C U41C U54A A56U | 0.07 |
| A15C A20G U26C U41C U54A A56U U58A | 0.23 |

| Variant | self-cleavage |
| --- | --- |
| A15C A20G U31C U41C A65G | 0.28 |
| A15C A20G U51A A65G | 0.16 |
| A15C A21G A56G U67A | 0.16 |
| A15C A21G U25A A64G | 0.11 |
| A15C A21G U54G | 0.27 |
| A15C A28C G33A A35U U48C A75U U80C | 0.05 |
| A15C A35G U51A U74A | 1.23 |
| A15C A35U U72A | 0.82 |
| A15C A45U U48C U54A A75U | 0.08 |
| A15C A57G A64G | 0.64 |
| A15C C37U U43C U80A | 0.18 |
| A15C C38U A57G U58C | 0.11 |
| A15C G19A A64G U72A | 0.13 |
| A15C G24A U66G | 0.26 |
| A15C G33C A35C U51A U60A | 0.04 |
| A15C G36A A47U | 0.06 |
| A15C G42A A64G U76C | 0.21 |
| A15C G46C C62U | 0.12 |
| A15C G52A U60C | 0.28 |
| A15C U25A U43A C50A U69A U74C | 0.06 |
| A15C U25C U26G A56G | 0.31 |
| A15C U26A C32U | 0.25 |
| A15C U26A U41A U43C | 0.08 |
| A15C U26A U43C | 0.35 |

| Variant | self-cleavage |
| --- | --- |
| A15C U26C C32U A45U | 0.1 |
| A15C U26C G36A U43C C68A | 0.29 |
| A15C U31A U41A U43C U48C G61A A65G | 0.05 |
| A15C U31C A56G U80A | 0.33 |
| A15C U31C U41C U72A | 0.43 |
| A15C U41A G53C U58C U66C | 0.08 |
| A15C U43C U49C U69A U74C | 0.18 |
| A15C U51A U67C U78C | 0.43 |
| A15G A18G A21U G33A C40A U54C A64G | 0.22 |
| A15G A18G A28G U43A U76G A77G | 0.14 |
| A15G A18G A35U | 0.31 |
| A15G A18G A57G C71U | 0.18 |
| A15G A18G C29U U41C A56G | 0.13 |
| A15G A18G C32U A35G | 0.1 |
| A15G A18G C40U A57G U58A A65G | 0.07 |
| A15G A18G G24A A57C | 0.2 |
| A15G A18G G46A U58C U60C | 0.14 |
| A15G A18G U25C C39U U67C U69A | 0.11 |
| A15G A18G U54A U67C | 0.12 |
| A15G A18U A45G U54A U72C | 0 |
| A15G A18U A56U U67A | 0.11 |
| A15G A18U G46A A47U C71G C79G | 0.08 |
| A15G A18U U25A C29U U31A A45G U67A | 0.05 |
| A15G A18U U26A G33U U76A | 0.18 |

| Variant | self-cleavage |
| --- | --- |
| A15G A18U U26C A28U U60C | 0.33 |
| A15G A18U U41A U49C A64G A77G U78C | 0.08 |
| A15G A18U U54C | 0.18 |
| A15G A18U U54C A64G | 0.41 |
| A15G A18U U60A A75U | 0.17 |
| A15G A20G A28U A35G | 0.16 |
| A15G A20G A28U A45U C62U U72A | 0.1 |
| A15G A20G A35G | 0.39 |
| A15G A20G A35G U41C | 0.47 |
| A15G A20G A56U | 0.14 |
| A15G A20G C23G A28C A56G | 0.14 |
| A15G A20G C29U U31C A45G | 0.16 |
| A15G A20G C32A | 0.12 |
| A15G A20G C39U U69A U72A | 0.07 |
| A15G A20G C40U U48C | 0.08 |
| A15G A20G G30U | 0.42 |
| A15G A20G G36A | 0.41 |
| A15G A20G G55A U72C | 0.76 |
| A15G A20G U25A A28G U41A A64G | 0.09 |
| A15G A20G U25A U60A U69A U74C A75U | 0.02 |
| A15G A20G U25C U51A C68G | 0.06 |
| A15G A20G U48C A57G | 0.77 |
| A15G A20U A21U G36A A47G A77G | 0.18 |
| A15G A20U A65G U69A U72C | 0.13 |

| Variant | self-cleavage |
| --- | --- |
| A15G A20U G24C C38U U41C | 0.19 |
| A15G A20U G46A | 0.23 |
| A15G A20U U31C U48C A64G U69A | 0.07 |
| A15G A20U U31G A45U U60A | 0.07 |
| A15G A20U U78A | 0.22 |
| A15G A21G A28G U51C U72C A75U | 0.46 |
| A15G A21G A28U A47U U51C U69C | 0.08 |
| A15G A21G A45U | 0.39 |
| A15G A21G A56G U60C U66A U74C | 0.12 |
| A15G A21G A64G | 0.36 |
| A15G A21G A65G U80A | 0.28 |
| A15G A21G C27U A35G A65U U66A | 0.1 |
| A15G A21G U25C A65G U72C | 0.12 |
| A15G A21G U25C C29U U43C U69C U80C | 0.02 |
| A15G A21G U25C G30A U60A | 0.25 |
| A15G A21G U43C | 0.4 |
| A15G A21U G24C U54A A65G U69C | 0.06 |
| A15G A21U U69A A77U U78A | 0.06 |
| A15G A28C C44U U66C | 0.08 |
| A15G A28G A35G U41C U54A | 0.21 |
| A15G A28G A47G | 0.37 |
| A15G A28G C29U | 0.37 |
| A15G A28G U43C A65G U69A | 0.04 |
| A15G A28G U54C U80C | 0.54 |

| Variant | self-cleavage |
| --- | --- |
| A15G A28G U66C A75G | 0.19 |
| A15G A28G U67C | 0.22 |
| A15G A28U A35U G73A U80C | 0.83 |
| A15G A28U A45U A64G | 0.11 |
| A15G A28U C29U A35U U49C | 0.08 |
| A15G A28U U54A A56U A64G | 0.13 |
| A15G A35G A45G U72A U76A | 0.22 |
| A15G A35G U48A U54G U78C | 0.4 |
| A15G A35U A45C U54C U67C | 0.09 |
| A15G A35U A45G | 0.5 |
| A15G A35U A56G A57G A77G | 0.38 |
| A15G A35U A64U G73A | 0.16 |
| A15G A35U U41C U48A U60G U72A | 0.04 |
| A15G A35U U49C | 0.33 |
| A15G A35U U51A U72A | 0.17 |
| A15G A45G A64U U76A | 0.38 |
| A15G A45G U49G | 0.13 |
| A15G A45G U51C A77G | 0.46 |
| A15G A45G U54C | 0.63 |
| A15G A45G U80A | 0.52 |
| A15G A45U A47G A56G | 0.16 |
| A15G A45U G46A U78C U80C | 0.08 |
| A15G A45U G46C | 0.39 |
